# Results as given in PubChem BioAssay AID485294 (National Center for Advancing Translational Sciences (NCATS), 2010).
# Hit rate of the full screen: of about 370,000 compounds, about 150 (0.041%) were called active. The inconclusive results got no clear call from the source; some entries with a clear call stand among them for comparison. Calls follow the shape of the dose curve; as a rule, active = well fitted inhibition curve with a large enough effect; inconclusive = small, poorly fitted or top-dose-only effect; inactive = flat fitted curve, though single readings scatter. Potencies of inconclusive entries are left out as doubtful fits.
# Molecular target: Beta-lactamase (Escherichia coli (strain K12)) (UniProt P00811)
# Assay: qHTS Inhibitors of AmpC Beta-Lactamase (assay with detergent); also: nearly all actives have a fitted effect of over 25% in size
# Details: AmpC hydrolysis of nitrocefin, absorbance 480 nm, 0.01% Triton; series mostly up to 114 µM
# How it was run: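 AmpC (5.3 nM in the dispensed reagent) in 20 mM phosphate pH 7.0 with 0.01% (detergent screen) or 0.0001% Triton X-100 was preincubated with compounds for 15 min at room temperature. Nitrocefin was then added from an 800 uM solution, and hydrolysis was followed at 480 nm.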
# Potency is read from the fitted curve at half-maximal effect; tags tell the direction and shape of the fitted curve.
# Sequence of UniProt P00811 (P00811 whole entry, looked up): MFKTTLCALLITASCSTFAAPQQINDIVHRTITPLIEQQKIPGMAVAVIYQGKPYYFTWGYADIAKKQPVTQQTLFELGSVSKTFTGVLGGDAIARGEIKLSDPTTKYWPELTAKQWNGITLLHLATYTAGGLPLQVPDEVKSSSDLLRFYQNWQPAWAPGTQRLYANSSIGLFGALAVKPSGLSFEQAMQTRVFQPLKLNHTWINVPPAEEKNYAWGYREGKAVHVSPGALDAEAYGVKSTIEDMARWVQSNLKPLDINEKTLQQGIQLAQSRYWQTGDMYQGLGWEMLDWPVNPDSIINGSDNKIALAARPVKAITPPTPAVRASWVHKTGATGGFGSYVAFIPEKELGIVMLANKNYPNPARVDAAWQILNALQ
row,SMILES,Potency
1,CCCN(CCC)S(=O)(=O)c1ccc(C(=O)N2CCn3c4c(c5cc(C)ccc53)CCCC42)cc1 (stereo not given),inactive
2,CCOc1ccc(NC(=O)Nc2nc3ccc(S(C)(=O)=O)cc3s2)cc1,"inconclusive [inhibitor, full curve, poor fit]"
3,CC(CCc1ccccc1)NC(=O)C1CCCN(c2nnc(-n3cccc3)s2)C1 (stereo not given),"inconclusive [inhibitor, full curve, poor fit]"
4,CCN(c1ccccc1)S(=O)(=O)c1ccc(C(=O)Nc2cc(C)ccn2)cc1,inactive
5,CCOC(=O)C1CCCN(C(=O)Nc2cccc(Cl)c2)C1 (stereo not given),"inconclusive [inhibitor, single point]"
6,COc1ccccc1NC(=O)Nc1ccc(F)c(F)c1,inactive
7,O=C1N(Nc2ccccc2)C(c2ccc(Br)cc2)C12CCCC2 (stereo not given),"inconclusive [inhibitor, partial curve, poor fit]"
8,NS(=O)(=O)c1ccc(NC(=S)NCc2ccccc2)cc1,"inconclusive [inhibitor, partial curve]"
9,COc1ccc(S(=O)(=O)Nc2cccc(N(C)S(C)(=O)=O)c2)cc1C,"inconclusive [inhibitor, single point]"
10,CC(C)N(C(=O)CS(=O)(=O)c1ccc(Cl)c(Cl)c1)C(C)C,"inconclusive [inhibitor, full curve, poor fit]"
11,COc1ccc(-n2c(SCC(=O)Nc3cccc4ccccc34)nc(O)cc2=O)cc1,inactive
12,Cc1nc(C)c(-c2csc(Nc3ccc(N)cc3)n2)s1,"inconclusive [inhibitor, full curve, poor fit]"
13,CN1CCN(C(=O)/C(=C/c2cn(S(=O)(=O)N(C)C)c3ccccc23)NC(=O)c2ccccc2)CC1,"inconclusive [inhibitor, partial curve, poor fit]"
14,Cc1nn(-c2cc(N3CCCCCC3)ccc2[N+](=O)[O-])c(=O)c2ccccc12,"inconclusive [inhibitor, full curve, poor fit]"
15,O=C1c2ccccc2C(Nc2ccc(-c3nc4ccccc4[nH]3)cc2)N1Cc1ccco1 (stereo not given),"inconclusive [inhibitor, full curve]"
16,CC(C)(C)c1cnnn1-c1ccc(C=O)cc1,"inconclusive [inhibitor, full curve, poor fit]"
17,CCOc1cccc(/C=N/NC(=S)Nc2cc(S(=O)(=O)N3CCOCC3)ccc2N2CCOCC2)c1O,inactive
18,O=C(CCCn1c(=S)[nH]c2ccccc2c1=O)NC1CCCC1,"inconclusive [inhibitor, single point]"
19,NC(=O)c1ccc2c(=O)c(O)c(-c3cc(Cl)c(N)c(Cl)c3)[nH]c2c1,"inconclusive [inhibitor, full curve, poor fit]"
20,CCc1ccc(Nc2nc3ccccc3c3nnc(C)n23)cc1,inactive
21,O=C1CC(C2CCCO2)C(=O)N1c1cccc(Cl)c1 (stereo not given),"inconclusive [inhibitor, partial curve, poor fit]"
22,Cc1ccc(/C=N/OC(=O)c2nn(C)cc2Cl)cc1,"inconclusive [inhibitor, partial curve]"

row,SMILES,Potency
1,CC(=O)Nc1ccc(C(=O)CSc2nnc(-c3ccc(O)cc3)n2CC2CCCO2)cc1 (stereo not given),"inconclusive [inhibitor, full curve, poor fit]"
2,O=C(O)c1ccccc1OCc1nc2ccccc2s1,inactive
3,CC(C)(C)Nc1nc(SCc2ccccc2)nc(N2CCOCC2)n1,"inconclusive [inhibitor, full curve, poor fit]"
4,CSc1nnnn1CCn1nnnc1SC,"inconclusive [inhibitor, full curve, poor fit]"
5,CC(=O)c1cccc(NC(=O)c2cc(C(C)C)on2)c1,inactive
6,CCn1c(SCC(=O)N2CCc3ccccc32)nc2c(c1=O)SC(C)C2 (stereo not given),"inconclusive [inhibitor, partial curve]"
7,COCCn1c(=NC(=O)CSCC(=O)Nc2cc(C)on2)sc2cc(C(=O)OC)ccc21,"inconclusive [inhibitor, full curve, poor fit]"
8,CNS(=O)(=O)c1ccc(NC(=O)c2cncc(Br)c2)cc1,"inconclusive [inhibitor, partial curve]"
9,CCOC(=O)c1[nH]c(C)c(/C(O)=C2\C(=O)C(=O)N(CCN3CCOCC3)C2c2ccco2)c1C (stereo not given),inactive
10,CC1(C)NC(=O)N(CC(O)CN2CCOCC2)C1=O (stereo not given),"inconclusive [inhibitor, full curve, poor fit]"
11,FC(F)Oc1ccc(NC(=S)N2CCN(Cc3ccccc3)CC2)cc1,"inconclusive [inhibitor, single point]"
12,O=c1[nH]c(CN2CCOCC2)nc2ccccc12,"inconclusive [inhibitor, partial curve]"
13,CC(C)CNC(=O)c1cccc(NC(=O)C2CCCO2)c1 (stereo not given),"inconclusive [inhibitor, single point]"
14,CCCCCC1CCC(C(=O)N2CCOCC2)CC1 (stereo not given),"inconclusive [inhibitor, partial curve]"
15,CCN=C1NN=C(c2ccc(C)cc2)CS1,"inconclusive [inhibitor, full curve, poor fit]"
16,CCOC(=O)c1cnc2c(cnn2C)c1NCCCn1ccnc1,"inconclusive [inhibitor, full curve, poor fit]"
17,COC(=O)c1sc(NC(=O)c2ccco2)nc1C,"inconclusive [inhibitor, full curve, poor fit]"
18,COc1ccc(C2CC(=O)C3=C(C2)Nc2ncnn2C3c2ccccc2)cc1 (stereo not given),inactive
19,O=C(CSc1ccc(-c2ccccc2)nn1)N1CCCc2ccccc21,"inconclusive [inhibitor, full curve, poor fit]"
20,O=C1[C@@H]2Cc3c([nH]c4ccccc34)CN2C(=O)CN1CCCO,"inconclusive [inhibitor, partial curve, poor fit]"
21,CCN(CC)C(=O)CSC(Nc1ccc(F)cc1)=C(C#N)C#N,inactive
22,O=C(Nc1ccccc1)C(Cl)C(=O)c1ccccc1 (stereo not given),"inconclusive [inhibitor, partial curve]"

row,SMILES,Potency
1,Cn1cc([N+](=O)[O-])c(C(=O)NCc2cc3cc(Cl)ccc3[nH]2)n1,"inconclusive [inhibitor, partial curve]"
2,CC(C)OCCCn1c(=N)c(C(N)=S)cc2c(=O)n3ccccc3nc21,"inconclusive [inhibitor, full curve, poor fit]"
3,O=C1/C(=C\c2cccnc2)N2CCC1CC2,"inconclusive [inhibitor, full curve, poor fit]"
4,Cc1cc(Nc2cccc(O)c2)c2ccccc2n1,"inconclusive [inhibitor, full curve, poor fit]"
5,Cc1ccc(Cl)cc1N1CCN(C(=O)c2cn(C)c3ccc(S(=O)(=O)N4CCCC4)cc3c2=O)CC1,inactive
6,Cc1sc2nc(-c3ccco3)oc(=O)c2c1C,"inconclusive [inhibitor, full curve, poor fit]"
7,COc1ccc(S(=O)(=O)N2CCCOC2CNC(=O)C(=O)NCCCn2ccnc2)cc1 (stereo not given),"inconclusive [inhibitor, full curve, poor fit]"
8,COC(=O)c1ccccc1NC(=O)C12CC3CC(C1)CC(n1cnc(Cl)n1)(C3)C2,"inconclusive [inhibitor, full curve, poor fit]"
9,CC(C)c1nnc(NC(=O)c2ccc(N3C(=O)CCC3=O)cc2)s1,"inconclusive [inhibitor, partial curve, poor fit]"
10,COc1cc2nc(N3CCN(C(=O)[C@@H]4CCCO4)CC3)nc(N)c2cc1OC,"inconclusive [inhibitor, single point]"
11,CCOC(=O)c1cnc2c(Cl)cccc2c1NCCCN1CCOCC1,"inconclusive [inhibitor, full curve, poor fit]"
12,CN(C)c1ccc(CNn2cnnc2SCc2ccccc2F)cc1,"inconclusive [inhibitor, full curve, poor fit]"
13,COCCCn1c(SCC(=O)N2CCCC(C)C2)nnc1-c1ccco1 (stereo not given),inactive
14,CCOc1cc(-c2sc(Nc3ccccc3)n[n+]2-c2ccc(F)cc2)ccc1OC,"inconclusive [inhibitor, partial curve, poor fit]"
15,CCc1ccc(NC(=O)CCc2nc3cccnc3n2Cc2ccc(OC)cc2)cc1,"inconclusive [inhibitor, full curve, poor fit]"
16,O=C(Nc1ccccc1N1CCN(C(=O)c2ccc(Cl)cc2)CC1)c1ccc([N+](=O)[O-])o1,"inconclusive [inhibitor, partial curve]"
17,COCCn1c(C)cc(C(=O)COC(=O)CCS(=O)(=O)c2ccc(C)cc2)c1C,inactive
18,O=C(NC1(O)C(=O)c2ccccc2C1=O)c1ccccc1,"inconclusive [inhibitor, full curve, poor fit]"
19,COC(=O)c1c(-c2cccs2)csc1NC(=O)COc1ccc(C(C)C)cc1,inactive
20,CCOc1ccc(Br)cc1S(=O)(=O)N1CC(C)OC(C)C1 (stereo not given),"inconclusive [inhibitor, full curve, poor fit]"
21,Cc1ccc(S(=O)(=O)N(CCC#N)CCN2CCCC2)cc1,"inconclusive [inhibitor, partial curve, poor fit]"
